The supplement of paper PMC8728848
The other results are listed elsewhere or left out.

What was measured:
Assay in all cases: glycan array binding signal (z-score within array); higher = stronger binding
Conditions in all cases: glycan notation: IUPAC condensed, linker removed
[1] = target: Man(a1-2)Man(a1-2)Man(a1-3)[Man(a1-2)Man(a1-6)[Man(a1-3)]Man(a1-6)]Man(b1-4)GlcNAc(b1-4)GlcNAc
Procedure, shortened: (§1)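 Negative Z-scores can be read as non-binding. The Z-score is calculated within each array and then averaged across arrays of one protein sequence at different concentrations or buffers and across linkers. Arrays, 3228 in all, were curated from the Consortium for Functional Glycomics database and kept only where the protein sequence was available.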

[2] = target: Man(a1-2)Man(a1-2)Man(a1-6)[Man(a1-3)]Man
Procedure, shortened: as §1

[3] = target: Man(a1-2)Man(a1-3)Man
Procedure, shortened: as §1

[4] = target: Man(a1-2)Man(a1-3)[Man(a1-2)Man(a1-6)]Man
Procedure, shortened: as §1

[5] = target: Man(a1-2)Man(a1-3)[Man(a1-2)Man(a1-6)]Man(a1-6)[Man(a1-2)Man(a1-2)Man(a1-3)]Man
Procedure, shortened: as §1

[6] = target: Man(a1-2)Man(a1-3)[Man(a1-2)Man(a1-6)]Man(a1-6)[Man(a1-2)Man(a1-2)Man(a1-3)]Man(b1-4)GlcNAc(b1-4)GlcNAc
Procedure, shortened: as §1

[7] = target: Man(a1-2)Man(a1-3)[Man(a1-3)[Man(a1-6)]Man(a1-6)]Man(b1-4)GlcNAc(b1-4)GlcNAc
Procedure, shortened: as §1

[8] = target: Man(a1-2)Man(a1-3)[Man(a1-6)]Man(a1-6)[Man(a1-2)Man(a1-3)]Man(b1-4)GlcNAc(b1-4)GlcNAc
Procedure, shortened: as §1

[9] = target: Man(a1-2)Man(a1-6)[Man(a1-3)]Man(a1-6)[Man(a1-2)Man(a1-2)Man(a1-3)]Man
Procedure, shortened: as §1

[10] = target: Man(a1-2)Man(a1-6)[Man(a1-3)]Man(a1-6)[Man(a1-2)Man(a1-2)Man(a1-3)]Man(b1-4)GlcNAc(b1-4)GlcNAc
Procedure, shortened: as §1

[11] = target: Man(a1-3)[Man(a1-6)]Man
Procedure, shortened: as §1

[12] = target: Man(a1-3)[Man(a1-6)]Man(a1-6)[Man(a1-2)Man(a1-3)]Man(b1-4)GlcNAc(b1-4)GlcNAc
Procedure, shortened: as §1

[13] = target: Man(a1-3)[Man(a1-6)]Man(a1-6)[Man(a1-3)]Man
Procedure, shortened: as §1

[14] = target: Man(a1-3)[Man(a1-6)]Man(a1-6)[Man(a1-3)]Man(b1-4)GlcNAc(b1-4)GlcNAc
Procedure, shortened: as §1

[15] = target: Man(a1-3)[Man(a1-6)]Man(b1-4)GlcNAc(b1-4)GlcNAc
Procedure, shortened: as §1

[16] = target: Man(a1-6)Man
Procedure, shortened: as §1

[17] = target: Man(b1-4)GlcNAc
Procedure, shortened: as §1

[18] = target: Neu5Ac(a2-3)Gal
Procedure, shortened: as §1

[19] = target: Neu5Ac(a2-3)Gal(b1-3)GalNAc
Procedure, shortened: as §1

[20] = target: Neu5Ac(a2-3)Gal(b1-3)GalNAc(b1-3)Gal(a1-4)Gal(b1-4)Glc
Procedure, shortened: as §1

[21] = target: Neu5Ac(a2-3)Gal(b1-3)GalNAc(b1-3)Gal(b1-4)GlcNAc
Procedure, shortened: as §1

[22] = target: Neu5Ac(a2-3)Gal(b1-3)GalNAc(b1-4)[Neu5Ac(a2-3)]Gal(b1-4)Glc
Procedure, shortened: as §1

[23] = target: Neu5Ac(a2-3)Gal(b1-3)GalNAc(b1-4)[Neu5Ac(a2-8)Neu5Ac(a2-3)]Gal(b1-4)Glc
Procedure, shortened: as §1

[24] = target: Neu5Ac(a2-3)Gal(b1-3)GalNAc6S
Procedure, shortened: as §1

[25] = target: Neu5Ac(a2-3)Gal(b1-3)GlcNAc
Procedure, shortened: as §1

[26] = target: Neu5Ac(a2-3)Gal(b1-3)GlcNAc(b1-2)Man(a1-3)[Neu5Ac(a2-3)Gal(b1-3)GlcNAc(b1-2)Man(a1-6)]Man(b1-4)GlcNAc(b1-4)GlcNAc
Procedure, shortened: as §1

[27] = target: Neu5Ac(a2-3)Gal(b1-3)GlcNAc(b1-3)Gal(b1-3)GlcNAc
Procedure, shortened: as §1

[28] = target: Neu5Ac(a2-3)Gal(b1-3)GlcNAc(b1-3)Gal(b1-4)GlcNAc
Procedure, shortened: as §1

[29] = target: Neu5Ac(a2-3)Gal(b1-3)GlcNAc(b1-3)GalNAc
Procedure, shortened: as §1

[30] = target: Neu5Ac(a2-3)Gal(b1-3)GlcNAc6S
Procedure, shortened: as §1

[31] = target: Neu5Ac(a2-3)Gal(b1-3)[Fuc(a1-4)]GlcNAc
Procedure, shortened: as §1

[32] = target: Neu5Ac(a2-3)Gal(b1-3)[Fuc(a1-4)]GlcNAc(b1-3)Gal(b1-3)[Fuc(a1-4)]GlcNAc
Procedure, shortened: as §1

[33] = target: Neu5Ac(a2-3)Gal(b1-3)[Fuc(a1-4)]GlcNAc(b1-3)Gal(b1-4)[Fuc(a1-3)]GlcNAc
Procedure, shortened: as §1

[34] = target: Neu5Ac(a2-3)Gal(b1-3)[Neu5Ac(a2-3)Gal(b1-4)]GlcNAc
Procedure, shortened: as §1

[35] = target: Neu5Ac(a2-3)Gal(b1-3)[Neu5Ac(a2-6)]GalNAc
Procedure, shortened: as §1

[36] = target: Neu5Ac(a2-3)Gal(b1-4)Glc
Procedure, shortened: as §1

[37] = target: Neu5Ac(a2-3)Gal(b1-4)GlcNAc
Procedure, shortened: as §1

B1: AAL (Aleuria aurantia), P18891 (protein)
chain: PTEFLYTSKIAAISWAATGGRQQRVYFQDLNGKIREAQRGGDNPWTGGSSQNVIGEAKLFSPLAAVTWKSAQGIQIRVYCVNKDNILSEFVYDGSKWITGQLGSVGVKVGSNSKLAALQWGGSESAPPNIRVYYQKSNGSGSSIHEYVWSGKWTAGASFGSTVPGTGIGATAIGPGRLRIYYQATDNKIREHCWDSNSWYVGGFSASASAGVSIAAISWGSTPNIRVYWQKGREELYEAAYGGSWNTPGQIKDASRPTPSLPDTFIAANSSGNIDISVFFQASGVSLQQWQWISGKGWSIGAVVPTGTPAGW
In the case of B1, the “glycan array binding signal (z-score)” value [1] is reported as -0.611, the “glycan array binding signal (z-score)” value [2] is reported as -0.514 and the “glycan array binding signal (z-score)” value [3] is reported as -0.513. For the same binder, the “glycan array binding signal (z-score)” value [4] was -0.516, the “glycan array binding signal (z-score)” value [5] was -0.425 and the “glycan array binding signal (z-score)” value [6] was -0.488. The “glycan array binding signal (z-score)” value [7] was -0.62, the “glycan array binding signal (z-score)” value [8] was -0.518 and the “glycan array binding signal (z-score)” value [9] was -0.436. The “glycan array binding signal (z-score)” value [10] was -0.5, the “glycan array binding signal (z-score)” value [11] was -0.518 and the “glycan array binding signal (z-score)” value [12] was -0.494. The “glycan array binding signal (z-score)” value [13] was -0.435, the “glycan array binding signal (z-score)” value [14] was -0.485 and the “glycan array binding signal (z-score)” value [15] was -0.454. The “glycan array binding signal (z-score)” value [16] was -0.436, the “glycan array binding signal (z-score)” value [17] was -0.508 and the “glycan array binding signal (z-score)” value [18] was -0.501. For the same binder, the “glycan array binding signal (z-score)” value [19] was -0.471, the “glycan array binding signal (z-score)” value [20] was -0.489 and the “glycan array binding signal (z-score)” value [21] was -0.577. The “glycan array binding signal (z-score)” value [22] was -0.501, the “glycan array binding signal (z-score)” value [23] was -0.425 and the “glycan array binding signal (z-score)” value [24] was -0.5. The “glycan array binding signal (z-score)” value [25] was -0.513, the “glycan array binding signal (z-score)” value [26] was -0.442 and the “glycan array binding signal (z-score)” value [27] was -0.482. The “glycan array binding signal (z-score)” value [28] was -0.501, the “glycan array binding signal (z-score)” value [29] was -0.433 and the “glycan array binding signal (z-score)” value [30] was -0.493. The “glycan array binding signal (z-score)” value [31] was 1.33, the “glycan array binding signal (z-score)” value [32] was 1.29 and the “glycan array binding signal (z-score)” value [33] was 1.55. The “glycan array binding signal (z-score)” value [34] was -0.511, the “glycan array binding signal (z-score)” value [35] was -0.364 and the “glycan array binding signal (z-score)” value [36] was -0.496. For the same binder, the “glycan array binding signal (z-score)” value [37] was -0.505.
